Experimental findings from paper PMC4336329 (PLoS ONE, 2015) are described below.

Out of some 310,000 compounds screened, about 2,200 (0.71%) showed an effect of 50% or more. Effects have a minus sign here. The list shows a part of the results.

The target of this assay is human ether-à-go-go-related gene (hERG) potassium channel (human, UniProt Q12809). Briefly: primary screen, population patch clamp on CHO cells stably expressing hERG.
human ether-à-go-go-related gene (hERG) potassium channel, sequence (Q12809 whole entry, looked up): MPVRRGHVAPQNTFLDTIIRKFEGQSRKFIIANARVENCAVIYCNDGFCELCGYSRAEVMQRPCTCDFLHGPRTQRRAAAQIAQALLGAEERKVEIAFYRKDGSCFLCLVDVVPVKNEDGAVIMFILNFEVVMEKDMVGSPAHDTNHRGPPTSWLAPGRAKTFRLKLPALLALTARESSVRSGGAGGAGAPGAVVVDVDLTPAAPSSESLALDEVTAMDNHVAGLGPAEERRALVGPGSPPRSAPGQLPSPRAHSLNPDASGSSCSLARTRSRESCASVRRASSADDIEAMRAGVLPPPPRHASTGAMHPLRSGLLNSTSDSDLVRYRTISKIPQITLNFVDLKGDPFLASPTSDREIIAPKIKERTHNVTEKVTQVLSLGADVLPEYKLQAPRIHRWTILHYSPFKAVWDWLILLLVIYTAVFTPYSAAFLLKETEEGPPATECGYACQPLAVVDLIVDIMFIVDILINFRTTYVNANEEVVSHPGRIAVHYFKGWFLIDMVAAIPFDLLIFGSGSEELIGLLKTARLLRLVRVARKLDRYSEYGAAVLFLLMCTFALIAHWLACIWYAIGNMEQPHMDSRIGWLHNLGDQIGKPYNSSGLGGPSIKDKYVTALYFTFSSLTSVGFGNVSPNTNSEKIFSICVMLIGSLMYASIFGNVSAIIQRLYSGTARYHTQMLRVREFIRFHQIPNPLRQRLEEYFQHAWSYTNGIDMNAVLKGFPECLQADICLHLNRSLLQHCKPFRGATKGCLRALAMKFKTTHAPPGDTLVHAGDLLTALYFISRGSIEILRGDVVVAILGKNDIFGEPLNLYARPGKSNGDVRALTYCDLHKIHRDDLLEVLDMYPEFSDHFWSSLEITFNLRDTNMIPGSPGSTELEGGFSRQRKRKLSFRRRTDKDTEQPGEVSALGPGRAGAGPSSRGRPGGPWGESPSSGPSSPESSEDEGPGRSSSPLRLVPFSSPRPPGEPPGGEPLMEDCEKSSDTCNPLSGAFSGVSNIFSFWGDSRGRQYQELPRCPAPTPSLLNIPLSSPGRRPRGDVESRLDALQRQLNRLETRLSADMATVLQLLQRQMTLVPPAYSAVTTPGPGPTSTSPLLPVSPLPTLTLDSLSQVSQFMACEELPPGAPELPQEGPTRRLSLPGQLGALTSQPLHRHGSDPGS
For the compound `CCc1ccc2[nH]cc(C(=O)OCCOC)c(=O)c2c1`, the “hERG current change (%, negative = inhibition) at 1uM” value is given as 12.3%.
Next, `O=C(O/N=C\c1ccc(N2CCCCC2)c([N+](=O)[O-])c1)c1cccc(C(F)(F)F)c1`: 12.6%.
The result for `Cc1cccnc1NC(=O)Nc1ccc(F)cc1` reads 2.47%; that for `COc1ccc(/C=N/NC(=O)c2c(-c3ccccc3)noc2C)cc1[N+](=O)[O-]`, 3.27%.
The result for `CC(Nc1ccc(Cl)c(Cl)c1)C(=O)NN` (stereo not drawn) reads 11.6%; that for `Cl.NS(=O)(=O)c1ccc(CCNCc2cc(Br)ccc2OCc2ccccc2)cc1`, -44.9%.
Consider `Cc1ccccc1NS(=O)(=O)c1cc(C(=O)Nc2ccccc2-c2ccccc2)ccc1Cl`, for which the “hERG current change (%, negative = inhibition) at 1uM” value is recorded as -1.32%.
Next, `O=C(Cc1coc2ccc3ccccc3c12)NC1CCCc2ccccc21` (stereo not drawn): 6.68%; `O=C(Nc1ccncc1)c1ccccc1Cl`: 14.8%.
The result for `CCNC1=C(Cl)C(=O)c2ccccc2C1=O` reads 14.3%; that for `Cc1ccn2cc(CNS(=O)(=O)c3cccs3)nc2c1`, -4.47%.
The result for `CCOC(=O)C1(CC2CCCCO2)CCN(S(=O)(=O)c2cccc(F)c2)CC1` (stereo not drawn) reads 7.21%; that for `COc1ccc(/C=N/NC(=O)Cn2cc(C(F)(F)F)ccc2=O)cc1`, 2.71%.
For `O=C1NC(c2ccc3c(c2)OCO3)Oc2ccccc21` (stereo not drawn), the “hERG current change (%, negative = inhibition) at 1uM” value is 7.7%.
As to `C/C(N)=C(/C#N)C(=O)COC(=O)CCCNC(=O)c1ccc(Cl)cc1`, the “hERG current change (%, negative = inhibition) at 1uM” value came out at 28.8%.
The result for `Cl.c1ccc(CNCc2ccco2)cc1` reads 15.7%.
Next, `O=C(N/N=C/c1cccc(OCc2ccccc2)c1)c1ccc(Br)o1`: 16%; `CCS(=O)(=O)c1ccc2oc(SCC(=O)N3CCCCC3)nc2c1`: 0.777%; `COc1ccnc2c1c(=O)n(Cc1ccc(Cl)cc1)c(=O)n2C`: 19%.
Consider `Cc1ccccc1NS(=O)(=O)c1ccc(OCC(=O)NCc2ccco2)cc1`, for which the “hERG current change (%, negative = inhibition) at 1uM” value stood at 5.03%.
Next, `O=C(Nc1ccccc1N1CCCC1)C1CCN(S(=O)(=O)c2ccccc2)CC1`: 12.1%; `O=S(=O)(Cc1cc(NCc2ccccc2)nc(-c2ccccn2)n1)c1ccccc1`: 1.24%; `CCCCC(O)CN1CCC(c2ccccc2)CC1` (stereo not drawn): -36.3%.
Next, `Cc1ccc(OCC(O)CN2C(=O)NC(C)(C)C2=O)cc1C` (stereo not drawn): 11.8%; `O=C(/C=C/c1ccco1)NC1CCCC1`: 6.16%; `Cc1cc2ncn(C(=O)c3cc(-c4ccccc4)nc4ccccc34)c2cc1C`: 10.9%.
Take `COC(=O)CNc1cc(S(=O)(=O)N2CCCCC2)ccc1Oc1cccc(C)c1`: the “hERG current change (%, negative = inhibition) at 1uM” value came to 4.73%.
Regarding `CCOC(=O)CN1C(=O)N[C@@H](c2ccco2)C(C(C)=O)=C1C`, the “hERG current change (%, negative = inhibition) at 1uM” value was 18.5%.
Next, `O=C(CSc1nnc(-c2ccco2)o1)N1c2ccccc2CCc2ccccc21`: 9.21%; `CC(C)(C)C(=O)OCc1cn(-c2ccccc2)nn1`: 0.93%; `CCOc1ccc(NC(=O)CN2CCN(CC(=O)Nc3ccc(C(N)=O)cc3)CC2)cc1`: -36.9%.
Next, `COc1ccc(S(=O)(=O)Nc2ccccc2C(=O)N2CCOCC2)cc1Cl`: 2.55%.
The result for `O=C1NC(=O)C2(Cc3ccccc3N3CCCC32)C(=O)N1c1cccc(Cl)c1` (stereo not drawn) reads -8.75%; that for `COc1ccc(C(c2sc3nc(C)nn3c2O)N2CCC3(CC2)OCCO3)cc1` (stereo not drawn), 5.67%; that for `CC1CCN(CCC(=O)Nc2ccc(Cl)cc2)CC1.Cl`, 2.88%.
For `COc1cc(NC(=O)c2cccs2)c(OC)cc1NC(=O)c1cccs1`, the “hERG current change (%, negative = inhibition) at 1uM” value is reported as 9.57%.
The result for `CCCc1c(OCCCCc2nn[nH]n2)ccc(C(C)=O)c1O` reads 9.67%.
For the compound `CCC1CCCCN1CCNS(=O)(=O)c1ccc2c(c1)oc(=O)n2C` (stereo not drawn), the “hERG current change (%, negative = inhibition) at 1uM” value is recorded as 15.9%.
In the case of `Cc1cc(F)ccc1N1CCC(N2CCN(C(C)C)C(CCO)C2)CC1` (stereo not drawn), the “hERG current change (%, negative = inhibition) at 1uM” value is 3.39%.
Next, `Cc1cccc(OCC(O)CN2CC3(C)CC2CC(C)(C)C3)c1` (stereo not drawn): -21.1%; `CC(C)c1ccc(NC2CCCN(C(=O)CCN3CCCO3)C2)cc1` (stereo not drawn): 11.2%.
The result for `CC(C)c1ccc(N(C(=O)CNC(=O)c2ccco2)C(C(=O)NC2CCCC2)c2ccncc2)cc1` (stereo not drawn) reads 7.75%.
Next, `CCNc1nc(SCC(=O)OC)nc(N2CCOCC2)n1`: 8.98%; `O=C(O)C1C2C=CC(C2)C1C(=O)Nc1ccccc1Br` (stereo not drawn): 10.9%; `O=C(COc1ccc(C(=S)N2CCOCC2)cc1)N1CCCC1`: 3.36%.
